pIC50: −log10 of the molar value. Lines with a small IC50 respond at low doses; a limit (>, <) means that the fit lies beyond the doses tested. AUC sums up the same curve from the lowest dose to the 256-fold higher top dose; it is 1 without any effect and falls as sensitivity rises. Where the top dose is marked as inferred, it was calculated from the reported fits.
Key:
Assay in all cases: Viability of human cancer cell lines after 72 h of drug (GDSC screen)
Tipifarnib = compound: Cn1cncc1[C@@](N)(c1ccc(Cl)cc1)c1ccc2c(c1)c(-c1cccc(Cl)c1)cc(=O)n2C [Tipifarnib]; conditions: top dose 16 µM; top dose inferred
Procedure: (§1)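 Human cancer cell lines in 384-well plates, medium with 10% serum, drug for 72 h over a 256-fold dose range (nine 2-fold or five 4-fold steps up to the top dose). Adherent lines were fixed and stained with the nucleic acid dye Syto60, suspension lines read with resazurin; signal relative to control wells, capped at 0 and 100%. One two-parameter sigmoid per drug and line, fitted in a mixed model over all curves with the slope shared within a line.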

PFI-1 = compound: COc1ccccc1S(=O)(=O)Nc1ccc2c(c1)CN(C)C(=O)N2 [PFI-1]; conditions: top dose 10 µM; top dose inferred
Procedure: as §1

NG-25 = compound: CCN1CCN(Cc2ccc(NC(=O)c3ccc(C)c(Oc4ccnc5[nH]ccc45)c3)cc2C(F)(F)F)CC1 [NG-25]; conditions: top dose 10.24 µM; top dose inferred
Procedure: as §1

GSK-1904529A = compound: CCc1cc(Nc2nccc(-c3c(-c4ccc(OC)c(C(=O)Nc5c(F)cccc5F)c4)nc4ccccn34)n2)c(OC)cc1N1CCC(N2CCN(S(C)(=O)=O)CC2)CC1 [GSK-1904529A]; conditions: top dose 1.024 µM; top dose inferred
Procedure: as §1

EKB-569 = compound: CCOc1cc2ncc(C#N)c(Nc3ccc(F)c(Cl)c3)c2cc1NC(=O)/C=C/CN(C)C [EKB-569]; conditions: top dose inferred
Procedure: as §1

| Cell Line | AUC (Tipifarnib) | pIC50 (Tipifarnib) | AUC (PFI-1) | pIC50 (PFI-1) | AUC (NG-25) | pIC50 (NG-25) | AUC (GSK-1904529A) | pIC50 (GSK-1904529A) | AUC (EKB-569) | pIC50 (EKB-569) |
| --- | --- | --- | --- | --- | --- | --- | --- | --- | --- | --- |
| TT2609-C02 (thyroid, adherent) | 0.479 | 6.06 | 0.948 | < 5.00 | 0.827 | 5.17 | 0.977 | < 5.99 | – | – |
| OVISE (ovary, adherent) | 0.767 | 5.10 | 0.902 | < 5.00 | 0.903 | < 4.99 | 0.974 | < 5.99 | – | – |
| G-361 (melanoma, adherent) | 0.541 | 5.89 | 0.792 | 5.37 | 0.808 | 5.30 | 0.986 | < 5.99 | – | – |
| CAL-120 (breast, adherent) | 0.758 | 5.15 | 0.798 | 5.19 | 0.83 | 5.04 | 0.967 | < 5.99 | – | – |
| BCPAP (thyroid, adherent) | 0.541 | 5.89 | 0.889 | 5.02 | 0.789 | 5.39 | 0.985 | < 5.99 | – | – |
| A427 (non-small cell lung carcinoma, adherent) | 0.384 | 6.32 | 0.953 | < 5.00 | 0.873 | 5.00 | 0.986 | < 5.99 | – | – |
| A172 (glioma, adherent) | 0.676 | 5.52 | 0.925 | < 5.00 | 0.911 | < 4.99 | 0.984 | < 5.99 | – | – |
| NCI-H520 (lung squamous cell carcinoma, adherent) | 0.607 | 5.70 | 0.968 | < 5.00 | 0.659 | 5.74 | 0.972 | < 5.99 | – | – |
| IHH-4 (thyroid, semi-adherent) | 0.143 | 6.96 | 0.864 | 5.22 | 0.875 | 5.17 | 0.991 | < 5.99 | – | – |
| CAL-78 (chondrosarcoma, adherent) | 0.779 | 5.12 | 0.907 | < 5.00 | 0.944 | < 4.99 | 0.957 | < 5.99 | – | – |
| UACC-812 (breast, adherent) | 0.983 | < 4.80 | – | – | 0.871 | 5.04 | 0.991 | < 5.99 | – | – |
| C-4-I (cervix, adherent) | 0.81 | 5.03 | – | – | 0.971 | < 4.99 | 0.971 | < 5.99 | – | – |
| A375 (melanoma, adherent) | 0.435 | 6.16 | 0.833 | 5.31 | – | – | – | – | – | – |
| 201T (lung adenocarcinoma, adherent) | 0.628 | 5.61 | – | – | 0.898 | < 4.99 | 0.93 | < 5.99 | – | – |
| NCI-H1734 (lung adenocarcinoma, adherent) | 0.776 | 5.15 | – | – | 0.899 | < 4.99 | 0.985 | < 5.99 | – | – |
| KP-1N (pancreas, adherent) | 0.567 | 5.81 | 0.897 | < 5.00 | – | – | 0.948 | < 5.99 | – | – |
| NCI-H358 (lung adenocarcinoma, adherent) | 0.743 | 5.27 | 0.947 | < 5.00 | – | – | 0.98 | < 5.99 | – | – |
| SNU-475 (liver, adherent) | 0.979 | < 4.80 | – | – | 0.823 | 5.29 | 0.991 | < 5.99 | – | – |
| JHU-029 (head and neck, adherent) | 0.433 | 6.20 | 0.868 | < 5.00 | – | – | 0.948 | < 5.99 | – | – |
| NCI-H3122 (lung adenocarcinoma, adherent) | 0.201 | 6.90 | – | – | 0.86 | 5.05 | 0.951 | < 5.99 | – | – |
| PA-1 (ovary, adherent) | 0.525 | 5.94 | – | – | 0.847 | 5.28 | 0.991 | < 5.99 | – | – |
| U-2-OS (osteosarcoma, adherent) | 0.858 | 4.82 | – | – | 0.985 | < 4.99 | 0.964 | < 5.99 | – | – |
| G-MEL (melanoma, adherent) | – | – | 0.726 | 5.57 | 0.853 | 5.10 | 0.981 | < 5.99 | – | – |
| Caov-3 (ovary, adherent) | 0.955 | < 4.80 | – | – | 0.903 | < 4.99 | 0.991 | < 5.99 | – | – |
| H290 (mesothelioma, adherent) | 0.872 | 4.88 | 0.825 | 5.27 | – | – | 0.987 | < 5.99 | – | – |
| NCI-H647 (non-small cell lung carcinoma, adherent) | 0.905 | < 4.80 | – | – | 0.795 | 5.30 | 0.985 | < 5.99 | – | – |
| STS-0421 (soft tissue, adherent) | 0.758 | 5.19 | 0.81 | 5.20 | – | – | 0.963 | < 5.99 | – | – |

| Cell Line | AUC (Tipifarnib) | pIC50 (Tipifarnib) | AUC (PFI-1) | pIC50 (PFI-1) | AUC (NG-25) | pIC50 (NG-25) | AUC (GSK-1904529A) | pIC50 (GSK-1904529A) | AUC (EKB-569) | pIC50 (EKB-569) |
| --- | --- | --- | --- | --- | --- | --- | --- | --- | --- | --- |
| BxPC-3 (pancreas, adherent) | 0.645 | 5.58 | 0.796 | 5.27 | 0.857 | 5.00 | – | – | – | – |
| OCUM-1 (stomach, adherent) | 0.686 | 5.45 | – | – | 0.979 | < 4.99 | 0.879 | < 5.99 | – | – |
| SW1573 (lung adenocarcinoma, adherent) | – | – | 0.881 | < 5.00 | 0.979 | < 4.99 | 0.98 | < 5.99 | – | – |
| BICR31 (head and neck, adherent) | 0.605 | 5.71 | – | – | 0.98 | < 4.99 | 0.983 | < 5.99 | – | – |
| SCC90 (head and neck, adherent) | 0.692 | 5.36 | 0.921 | < 5.00 | – | – | 0.946 | < 5.99 | – | – |
| HuH-7 (liver, adherent) | 0.767 | 5.23 | 0.925 | < 5.00 | – | – | 0.965 | < 5.99 | – | – |
| MIA-PaCa-2 (pancreas, adherent) | 0.333 | 6.49 | – | – | 0.974 | < 4.99 | 0.981 | < 5.99 | – | – |
| NCI-H2052 (mesothelioma, adherent) | 0.851 | < 4.80 | – | – | 0.936 | < 4.99 | 0.983 | < 5.99 | – | – |
| SAT (head and neck, adherent) | 0.928 | < 4.80 | – | – | 0.94 | < 4.99 | 0.967 | < 5.99 | – | – |
| VMRC-RCW (kidney, adherent) | 0.205 | 6.84 | – | – | 0.917 | < 4.99 | 0.979 | < 5.99 | – | – |
| COR-L303 (small cell lung carcinoma, suspension, top dose 2.5 µM) | – | – | – | – | – | – | – | – | 0.945 | < 5.60 |
| BCPAP (thyroid, adherent, top dose 2.5 µM) | – | – | – | – | – | – | – | – | 0.924 | < 5.60 |
| HT (B-cell lymphoma, suspension, top dose 2.5 µM) | – | – | – | – | – | – | – | – | 0.957 | < 5.60 |
| SK-N-SH (neuroblastoma, adherent, top dose 2.5 µM) | – | – | – | – | – | – | – | – | 0.982 | < 5.60 |
| CHSA0108 (chondrosarcoma, adherent, top dose 2.5 µM) | – | – | – | – | – | – | – | – | 0.983 | < 5.60 |
| ETK-1 (biliary tract, adherent, top dose 2.5 µM) | – | – | – | – | – | – | – | – | 0.834 | 5.71 |
| RKN (ovary, adherent, top dose 2.5 µM) | – | – | – | – | – | – | – | – | 0.707 | 6.21 |
| SW954 (urogenital system, adherent, top dose 2.5 µM) | – | – | – | – | – | – | – | – | 0.654 | 6.38 |
| Caov-4 (ovary, adherent, top dose 2.5 µM) | – | – | – | – | – | – | – | – | 0.967 | < 5.60 |
| OVCA420 (ovary, adherent, top dose 2.5 µM) | – | – | – | – | – | – | – | – | 0.957 | < 5.60 |
| H2595 (mesothelioma, adherent, top dose 2.5 µM) | – | – | – | – | – | – | – | – | 0.967 | < 5.60 |
| NCI-H209 (small cell lung carcinoma, suspension, top dose 2.5 µM) | – | – | – | – | – | – | – | – | 0.842 | 5.71 |
| H2369 (mesothelioma, adherent, top dose 2.5 µM) | – | – | – | – | – | – | – | – | 0.97 | < 5.60 |
| MKN1 (stomach, adherent, top dose 2.5 µM) | – | – | – | – | – | – | – | – | 0.867 | 5.61 |
| H2722 (mesothelioma, adherent, top dose 2.5 µM) | – | – | – | – | – | – | – | – | 0.961 | < 5.60 |
| SW1710 (bladder, adherent, top dose 2.5 µM) | – | – | – | – | – | – | – | – | 0.879 | < 5.60 |
| ES5 (Ewing sarcoma, adherent, top dose 2.5 µM) | – | – | – | – | – | – | – | – | 0.848 | 5.64 |

From the supplement of paper PMC4967469
